Laboratory results from the supplement of paper PMC4604168 (melanoma cell lines).
The list shows a part of the results. Repeats are few or missing, and single values can be far off.

The compounds below were run on IST-MEL1 (assay: cell count relative to DMSO control; melanoma cells; higher = more viable cells). Settings: library dose: low library concentration; 72 h.
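Further: cell number obtained by counting DAPI-stained nuclei in high-throughput microscope images with image analysis software, screen run in 1,536-well plates.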

How did the cell count turn out when COc1ccc(C2=N[C@@H](c3ccc(Cl)cc3)[C@@H](c3ccc(Cl)cc3)N2C(=O)N2CCNC(=O)C2)c(OC(C)C)c1 [Nutlin-3] + C[C@@H](Oc1cc(-c2cnn(C3CCNCC3)c2)cnc1N)c1c(Cl)ccc(F)c1Cl [Crizotinib] (first compound 0.1 µM, partner dose 0.2 µM) was run?
The cell count was 104%.

For COc1ccc(C2=N[C@@H](c3ccc(Cl)cc3)[C@@H](c3ccc(Cl)cc3)N2C(=O)N2CCNC(=O)C2)c(OC(C)C)c1 [Nutlin-3] + OCc1c[nH]c2ccccc12 [Indole-3-carbinol] (first compound 0.1 µM, partner dose 0.8 µM), which cell count is on record?
The cell count was 101%.

How did the cell count turn out when COc1ccc(C2=N[C@@H](c3ccc(Cl)cc3)[C@@H](c3ccc(Cl)cc3)N2C(=O)N2CCNC(=O)C2)c(OC(C)C)c1 [Nutlin-3] + CS(=O)(=O)CCNCc1ccc(-c2ccc3ncnc(Nc4ccc(OCc5cccc(F)c5)c(Cl)c4)c3c2)o1 [lapatinib] (first compound 0.1 µM, partner dose 0.8 µM) was run?
The cell count was 114%.

Cc1cn(-c2cc(NC(=O)c3ccc(C)c(Nc4nccc(-c5cccnc5)n4)c3)cc(C(F)(F)F)c2)cn1 [nilotinib] + CC(=O)c1c(C)c2cnc(Nc3ccc(N4CCNCC4)cn3)nc2n(C2CCCC2)c1=O [palbociclib] (first compound 0.2 µM, partner dose 0.04 µM) was tested. Which cell count did it give?
Its cell count is 92.4%.

Cc1cn(-c2cc(NC(=O)c3ccc(C)c(Nc4nccc(-c5cccnc5)n4)c3)cc(C(F)(F)F)c2)cn1 [nilotinib] + CCN(CC)CCNC(=O)c1c(C)[nH]c(/C=C2\C(=O)Nc3ccc(F)cc32)c1C [sunitinib] (first compound 0.2 µM, partner dose 0.4 µM) was tested. Which cell count did it give?
Its cell count is 109%.

For Cc1cc(Nc2cc(N3CCN(C)CC3)nc(/C=C/c3ccccc3)n2)n[nH]1 + COc1ccc(Cl)c(Nc2nc3ccccc3nc2NS(=O)(=O)c2cccc(NC(=O)C(C)(C)N)c2)c1 [XL147] (first compound 0.04 µM, partner dose 0.8 µM), which cell count is on record?
Its cell count is 90.6%.

For COc1ccc(C2=N[C@@H](c3ccc(Cl)cc3)[C@@H](c3ccc(Cl)cc3)N2C(=O)N2CCNC(=O)C2)c(OC(C)C)c1 [Nutlin-3] + NC1(c2ccc(-c3nc4ccn5c(=O)[nH]nc5c4cc3-c3ccccc3)cc2)CCC1 [MK2206] (first compound 0.1 µM, partner dose 0.4 µM), which cell count is on record?
Its cell count is 93.7%.

CC(C)C[C@H](NC(=O)[C@H](Cc1ccccc1)NC(=O)c1cnccn1)B(O)O [Bortezomib] + CS(=O)(=O)CCNCc1ccc(-c2ccc3ncnc(Nc4ccc(OCc5cccc(F)c5)c(Cl)c4)c3c2)o1 [lapatinib] (first compound 0.001 µM, partner dose 0.8 µM) was tested. Which cell count did it give?
Its cell count is 91%.

For CC(C)C[C@H](NC(=O)[C@H](Cc1ccccc1)NC(=O)c1cnccn1)B(O)O [Bortezomib] + C[C@]1(c2nc3c(C(N)=O)cccc3[nH]2)CCCN1 [Veliparib] (first compound 0.001 µM, partner dose 1.4 µM), which cell count is on record?
Its cell count is 95.4%.

Cc1cc(Nc2cc(N3CCN(C)CC3)nc(/C=C/c3ccccc3)n2)n[nH]1 + COCC[n+]1c2c(n(Cc3cnccn3)c1C)C(=O)c1ccccc1C2=O [YM155] (first compound 0.04 µM, partner dose 0.0004 µM) was tested. Which cell count did it give?
The cell count was 95%.

Which cell count does the source give for Cc1cn(-c2cc(NC(=O)c3ccc(C)c(Nc4nccc(-c5cccnc5)n4)c3)cc(C(F)(F)F)c2)cn1 [nilotinib] + CC(C)C[C@H](NC(=O)[C@H](Cc1ccccc1)NC(=O)c1cnccn1)B(O)O [Bortezomib] (first compound 0.2 µM, partner dose 0.001 µM) here?
Its cell count is 97.1%.

How did the cell count turn out when Cn1c(=O)n(-c2ccc(C(C)(C)C#N)cc2)c2c3cc(-c4cnc5ccccc5c4)ccc3ncc21 + CN1CCN(c2ccc3nc(-c4c(N)c5c(F)cccc5[nH]c4=O)[nH]c3c2)CC1 [Dovitinib] (first compound 0.004 µM, partner dose 0.1 µM) was run?
Its cell count is 98.3%.

For CC(C)C[C@H](NC(=O)[C@H](Cc1ccccc1)NC(=O)c1cnccn1)B(O)O [Bortezomib] + CCCS(=O)(=O)Nc1ccc(F)c(C(=O)c2c[nH]c3ncc(Cl)cc23)c1F [PLX4720] (first compound 0.001 µM, partner dose 0.08 µM), which cell count is on record?
The cell count was 85.1%.

With Cc1cn(-c2cc(NC(=O)c3ccc(C)c(Nc4nccc(-c5cccnc5)n4)c3)cc(C(F)(F)F)c2)cn1 [nilotinib] + OCc1c[nH]c2ccccc12 [Indole-3-carbinol] (first compound 0.2 µM, partner dose 0.8 µM) as the compound, how does the cell count read?
The cell count was 86.7%.

CC(C)C[C@H](NC(=O)[C@H](Cc1ccccc1)NC(=O)c1cnccn1)B(O)O [Bortezomib] + Cn1c(Nc2ccc(C(F)(F)F)cc2)nc2cc(Oc3ccnc(-c4ncc(C(F)(F)F)[nH]4)c3)ccc21 [CHIR265] (first compound 0.001 µM, partner dose 0.08 µM) was tested. Which cell count did it give?
Its cell count is 75.8%.

Cc1cc(Nc2cc(N3CCN(C)CC3)nc(/C=C/c3ccccc3)n2)n[nH]1 + Cn1nnc2c(C(N)=O)ncn2c1=O [temozolomide] (first compound 0.04 µM, partner dose 2 µM) was tested. Which cell count did it give?
Its cell count is 93.1%.

How did the cell count turn out when Cc1cn(-c2cc(NC(=O)c3ccc(C)c(Nc4nccc(-c5cccnc5)n4)c3)cc(C(F)(F)F)c2)cn1 [nilotinib] + Cn1nnc2c(C(N)=O)ncn2c1=O [temozolomide] (first compound 0.2 µM, partner dose 2 µM) was run?
Its cell count is 102%.
